Out of some 45,000 compounds screened, about 65 (0.1%) were called active. Calls come from the whole dose curve; as a rule, active = well fitted activation curve with a large enough effect; inconclusive = small, poorly fitted or top-dose-only effect; inactive = no such curve, though single readings can be large or run the other way. This is one part of the list.
Molecular target: Galactocerebrosidase (Homo sapiens) (UniProt P54803)
Assay: A Novel Cell-Based Assay to Identify Small Molecules for B -Galactocerebrosidase; note: 0% is about no effect; nearly all actives have a fitted effect of over 65% in size
Conditions: 145M-Twi-hGALC-G270D cells (Twitcher mouse brain line with human GALC G270D), HMU-beta-Gal fluorescence, 48 h; series mostly up to 57.5 µM; activation: at the top concentration
Summary of the method: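 Live 145M-Twi cells (Twitcher mouse brain-derived, GALC-null) stably expressing human GALC-G270D, with a wild-type GALC line, were compound-treated. Residual GALC activity was then read as fluorescence from 0.1 mM final HMU-β-gal at pH 5.2; higher signal means activation.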

Chain of UniProt P54803 (P54803 whole entry, looked up): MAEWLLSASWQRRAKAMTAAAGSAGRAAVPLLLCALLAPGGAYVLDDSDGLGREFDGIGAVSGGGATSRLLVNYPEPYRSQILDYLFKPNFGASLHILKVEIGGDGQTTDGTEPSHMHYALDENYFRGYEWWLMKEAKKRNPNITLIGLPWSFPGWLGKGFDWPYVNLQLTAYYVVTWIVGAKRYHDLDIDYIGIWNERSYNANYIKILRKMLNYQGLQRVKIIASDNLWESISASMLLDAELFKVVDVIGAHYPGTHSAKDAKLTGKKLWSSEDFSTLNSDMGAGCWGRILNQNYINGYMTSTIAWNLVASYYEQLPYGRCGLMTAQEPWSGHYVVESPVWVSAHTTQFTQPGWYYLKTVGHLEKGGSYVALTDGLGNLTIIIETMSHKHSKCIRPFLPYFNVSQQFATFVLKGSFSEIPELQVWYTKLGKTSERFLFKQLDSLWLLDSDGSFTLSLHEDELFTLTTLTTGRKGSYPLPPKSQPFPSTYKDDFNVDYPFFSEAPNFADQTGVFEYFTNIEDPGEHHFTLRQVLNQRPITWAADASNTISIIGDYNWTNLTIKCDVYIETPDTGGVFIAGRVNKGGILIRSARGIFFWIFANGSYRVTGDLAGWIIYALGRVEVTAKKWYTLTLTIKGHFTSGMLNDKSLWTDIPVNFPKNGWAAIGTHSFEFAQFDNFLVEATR

| Compound | activation |
| --- | --- |
| CC1CCN(S(=O)(=O)c2cccc(C(=O)NC3CCS(=O)(=O)C3)c2)CC1 (stereo unspecified) | inactive: -20.7% |
| Cc1cc(C)c(NC(=O)CN2C(=O)c3cccnc3Oc3ccc(Cl)cc32)c(C)c1 | inactive: -6.61% |
| Cc1cc(Nc2ccc(C)c(Cl)c2)n2nc(-c3ccccc3)nc2n1 | inactive: -1.68% |
| Cc1ccc(C(=O)N2c3nc(-c4ccco4)nn3C3(CCCCC3)[C@@H]3CCCC[C@@H]32)cc1 | inactive: -7.17% |
| COc1ccc(OC)c(CNC(=O)c2cc(=O)[nH]c3ccc(S(=O)(=O)N4CCCCC4C)cc23)c1 (stereo unspecified) | inactive: 4.03% |
| Cc1ccc2cccc(NC(=O)c3ccc(-c4ccc(Cl)cc4Cl)o3)c2n1 | inactive: -8.48% |
| Cc1csc2nc(-c3cccc(NC(=O)c4ccc(S(N)(=O)=O)cc4)c3)cn12 | inactive: -13.8% |
| COc1ccc(-c2nc3cc(NC(=O)COc4ccc(F)cc4)ccc3o2)cc1 | inactive: -14.4% |
| O=C(CCNS(=O)(=O)c1cccc2nsnc12)Nc1ccc(F)cc1 | inactive: 0.307% |
| CCOC(=O)N1CCC(NC(=O)c2cnn(-c3ccccc3)c2C2CCN(C(=O)OC(C)(C)C)CC2)CC1 | inactive: 5.71% |
| COc1ccc(S(=O)(=O)NCCc2sc(-c3ccccc3)nc2C)cc1OC | inactive: -26.3% |
| CCc1ccccc1NC(=O)CSc1ncc2c(n1)-c1ccccc1N(C)S2(=O)=O | inactive: -11.3% |
| O=C(NCCC1=CCCCC1)c1ccc2c(c1)ncn2-c1cccc(Cl)c1 | inactive: -11.4% |
| COc1cccc(NC(=O)Cn2c(=O)n(Cc3nc(-c4ccccc4)no3)c(=O)c3ccccc32)c1 | inactive: -17% |
| CCOc1ccc(-c2cc(C)n3nc(C(=O)Nc4cc(Cl)ccc4O)cc3n2)cc1 | inactive: -4.3% |
| COc1ccccc1/C=C(\C#N)c1nc(-c2cc3ccccc3oc2=O)cs1 | inactive: -12.2% |
| CCC(=O)Nc1ccc(S(=O)(=O)NCc2cccn2Cc2cccc(C)c2)cc1 | inactive: -0.2% |
| CCc1ccccc1NC(=O)Nc1ccc2snnc2c1 | inactive: -3.43% |
| CCC(CC)C(=O)N1CCc2cc(OC)c(OC)cc2C1COc1ccc(F)cc1 (stereo unspecified) | inactive: -14.6% |
| Cc1ccc(CNC(=O)CSc2c(C(C)C)cnc3c2c(=O)n(C)c(=O)n3C)cc1 | inactive: -0.198% |
| Cc1cccc(CC(=O)N2CC(=O)Nc3ccc(F)cc3C2c2ccccc2)c1 (stereo unspecified) | inactive: -6.7% |
| O=C(CSCc1ccc(F)cc1)NCc1ccc(F)cc1 | inactive: -12.3% |
| COc1cc(NC(=O)CCCc2nnc3n(C)c(=O)c4sccc4n23)cc(OC)c1OC | inactive: 2.05% |
| O=C(CSc1nc(Nc2ccc(F)c(F)c2)c2ccccc2n1)c1ccc(Cl)cc1 | inactive: -5.29% |
| Cc1cccc(-n2ncc(C(=O)NCc3ccc4c(c3)OCO4)c2C2CCN(C(=O)OC(C)(C)C)CC2)c1 | inactive: -8.98% |
| CCc1ccc(NS(=O)(=O)c2ccc3[nH]c4c(c3c2)CCCCCC4)cc1 | inactive: -10.2% |

From PubChem BioAssay AID1159614 (National Center for Advancing Translational Sciences (NCATS), 2016)
